This list was built around the results that the source calls inconclusive (neither active nor inactive); the mix of calls is not that of the screen. Potencies beside an inconclusive call are fits to weak or partial responses and may not hold up. Active and inactive are the calls of the source. Calls follow the shape of the dose curve; as a rule, active = well fitted cell-killing curve with a large enough effect in the repeat runs; inconclusive = weak or mixed curves, or effect the other way; inactive = flat fitted curve, though single readings scatter.
Experiment: cAMP Responsive Elements (CRE) small molecule antagonists, cell-based qHTS assay: qHTS cell viability counter screen (AID 2060913); also: nearly all actives have a fitted effect of over 40% in size
Method in brief: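 CRE-bla HEK293T cells (2,000/well, 18 h) given compound plus NKH477 0.25 uM final for 3 h at 37C; viability counter-screen by CellTiter-Glo luminescence in same wells after 30 min.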
Potency is read from the fitted curve at half-maximal effect; tags tell the direction and shape of the fitted curve.

Structure (SMILES)	Potency
CN(C)CC[C@@H](c1ccc(Cl)cc1)c1ccccn1	inactive
C=C[C@](C)(O)CC[C@@H]1[C@@]2(C)CCCC(C)(C)[C@@H]2CC[C@@]1(C)O	inconclusive: 63.9 µM [cytotoxic, single point]
C[C@@H]1C[C@H]2O[C@@]3(O[C@@H]2C(C)(C)O)[C@H](O)[C@@]2(C)[C@@H]4CC[C@H]5C(C)(C)[C@@H](O[C@@H]6OC[C@@H](O)[C@H](O)[C@H]6O)CC[C@@]56C[C@@]46CC[C@]2(C)[C@@H]13	inactive
CC(C)c1ccc2c(c1)CC[C@H]1[C@](C)(CN)CCC[C@]21C	inconclusive: 61.1 µM [cytotoxic, single point]
CCCC(=O)OC(=O)CCC	inactive
CCCCCCCCCCCCOCC1CO1 (configuration not stated)	inconclusive: 4.47 µM [cytotoxic, single point]
CCCCCCCCCOC(=O)c1ccc(O)cc1	active: 47.9 µM
CC(C)CCCCCOC(=O)CS	inconclusive: 1.28 µM [cytotoxic, single point]
Oc1ccc2c(c1)Cc1ccccc1-2	inactive
C=CC(=O)OCCn1c(=O)n(CCOC(=O)C=C)c(=O)n(CCOC(=O)C=C)c1=O	inconclusive: 19.3 µM [rising, partial curve]
COCCOc1cc2cc(C(=O)NC3CCN(C(C)C)CC3)n(CC(=O)Nc3ccc(Cl)cn3)c2cn1	inactive
C[C@]12CC[C@H]3C(=CCc4cc(O)ccc43)[C@@H]1CCC2=O	inconclusive: 71.7 µM [cytotoxic, partial curve, poor fit]

Source: PubChem BioAssay (Tox21)
